From paper PMC4336329 (PLoS ONE, 2015)
About 2,200 (0.71%) of roughly 310,000 compounds showed an effect of 50% or more. Effects have a minus sign here. The list shows a part of the results.

What follows are compounds tested against human ether-à-go-go-related gene (hERG) potassium channel (human, UniProt Q12809) (assay: primary screen, population patch clamp on CHO cells stably expressing hERG).
Chain of human ether-à-go-go-related gene (hERG) potassium channel (Q12809 whole entry, looked up): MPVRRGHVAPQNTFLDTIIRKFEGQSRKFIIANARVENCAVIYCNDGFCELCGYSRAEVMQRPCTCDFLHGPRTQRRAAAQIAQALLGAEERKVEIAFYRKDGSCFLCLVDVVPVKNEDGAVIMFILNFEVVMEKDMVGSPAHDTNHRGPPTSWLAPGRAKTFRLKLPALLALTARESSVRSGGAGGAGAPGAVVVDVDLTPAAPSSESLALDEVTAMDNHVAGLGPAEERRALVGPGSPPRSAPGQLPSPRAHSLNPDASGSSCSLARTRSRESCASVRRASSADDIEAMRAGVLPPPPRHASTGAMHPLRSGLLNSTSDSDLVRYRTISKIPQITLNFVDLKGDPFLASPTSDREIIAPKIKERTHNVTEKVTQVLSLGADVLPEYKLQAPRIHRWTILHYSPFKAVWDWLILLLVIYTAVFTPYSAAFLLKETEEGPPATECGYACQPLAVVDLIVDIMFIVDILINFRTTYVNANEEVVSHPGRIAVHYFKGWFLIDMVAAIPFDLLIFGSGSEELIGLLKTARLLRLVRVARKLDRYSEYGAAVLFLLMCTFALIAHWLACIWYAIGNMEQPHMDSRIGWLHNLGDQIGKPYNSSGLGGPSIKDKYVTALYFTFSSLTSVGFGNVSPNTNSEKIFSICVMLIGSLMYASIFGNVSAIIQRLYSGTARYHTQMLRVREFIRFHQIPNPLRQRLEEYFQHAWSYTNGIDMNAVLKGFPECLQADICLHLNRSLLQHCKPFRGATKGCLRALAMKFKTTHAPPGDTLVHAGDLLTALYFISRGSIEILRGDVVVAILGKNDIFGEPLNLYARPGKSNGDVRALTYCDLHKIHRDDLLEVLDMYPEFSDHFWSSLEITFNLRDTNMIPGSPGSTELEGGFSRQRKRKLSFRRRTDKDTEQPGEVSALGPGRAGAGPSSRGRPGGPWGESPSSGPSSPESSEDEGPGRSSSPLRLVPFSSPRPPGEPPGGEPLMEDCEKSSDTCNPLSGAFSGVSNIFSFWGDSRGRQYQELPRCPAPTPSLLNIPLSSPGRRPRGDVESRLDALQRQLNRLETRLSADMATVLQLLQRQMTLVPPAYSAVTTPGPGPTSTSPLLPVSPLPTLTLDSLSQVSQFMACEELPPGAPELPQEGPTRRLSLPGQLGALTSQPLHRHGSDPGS
For `CN(C)S(=O)(=O)c1c(Cl)cccc1Cl`, the “hERG current change (%, negative = inhibition) at 1uM” value was 10.4%.
For `CCCOc1ccc(C2C(=O)N(C3CCCCC3)CC(=O)N2CCCOCC)cc1OC` (stereo not drawn), the “hERG current change (%, negative = inhibition) at 1uM” value was 3.83%.
In the case of `Cc1ccc(C2=NS(=O)(=O)N(C)C(C(=O)Nc3cc(C)n(CC(=O)N4CCCCC4)n3)=C2)cc1`, the “hERG current change (%, negative = inhibition) at 1uM” value is reported as 14.4%.
For `CC(C)CCC(CCN1CCOCC1)c1ccc2c(c1)OCO2.Cl` (stereo not drawn), the “hERG current change (%, negative = inhibition) at 1uM” value was -76.8%.
In the case of `Cc1cccc(-n2c(=S)[nH]c3c(oc4ccccc43)c2=O)c1`, the “hERG current change (%, negative = inhibition) at 1uM” value is reported as 14.6%.
In the case of `CN(C)C(=S)Nc1cccc(C(F)(F)F)c1`, the “hERG current change (%, negative = inhibition) at 1uM” value is reported as 1.12%.
In the case of `N#Cc1ccccc1S(=O)(=O)c1ccccc1C(=O)Nc1ccccc1`, the “hERG current change (%, negative = inhibition) at 1uM” value is reported as 12.5%.
`O=C(O)C1CCCN1C(=O)Nc1ccccc1` (stereo not drawn) was tested, and the “hERG current change (%, negative = inhibition) at 1uM” value was 13.2%.
With `CN(C)CCNC(=O)c1ccccc1-c1cc2ccccc2c(=O)o1` the “hERG current change (%, negative = inhibition) at 1uM” value was 1.4%.
For `O=C(Nc1nc(-c2ccc(-c3ccccc3)cc2)cs1)c1cc([N+](=O)[O-])ccc1N1CCOCC1`, the “hERG current change (%, negative = inhibition) at 1uM” value was 6.31%.
For `COc1ccc2cc(C(=O)/C=C/c3cc(OC)c(OC)c(OC)c3)ccc2c1`, the “hERG current change (%, negative = inhibition) at 1uM” value was 15.4%.
For `CC(C)c1nnc(NC(=O)C2CCN(c3cnccn3)CC2)s1`, the “hERG current change (%, negative = inhibition) at 1uM” value was 0.597%.
`COc1cccc(NC(=O)N2CCc3ccccc3C2)c1` was tested, and the “hERG current change (%, negative = inhibition) at 1uM” value was 20.5%.
In the case of `CCN(CC)CCN1C(=O)C(=O)/C(=C(/O)c2c(C)[nH]c(C(=O)OC)c2C)C1c1ccco1` (stereo not drawn), the “hERG current change (%, negative = inhibition) at 1uM” value is reported as 2.31%.
With `Cc1ccc(CCn2c3c(c4ccccc42)CN(C)CC3)cn1` the “hERG current change (%, negative = inhibition) at 1uM” value was -1.37%.
In the case of `Cc1onc(C(=O)NC(C)c2ccccc2)c1[N+](=O)[O-]` (stereo not drawn), the “hERG current change (%, negative = inhibition) at 1uM” value is reported as 5.51%.
In the case of `CN(CC(=O)Nc1cccc(F)c1)C(=O)c1ccc2c(c1)S(=O)(=O)N=C1CCCCCN12`, the “hERG current change (%, negative = inhibition) at 1uM” value is reported as 19.2%.
For `Cc1nc(NC(=O)c2ccc(Br)s2)sc1C(=O)N(C)C`, the “hERG current change (%, negative = inhibition) at 1uM” value was -1.48%.
In the case of `COCCn1nnnc1C(C(C)C)N1CCSCC1.Cl` (stereo not drawn), the “hERG current change (%, negative = inhibition) at 1uM” value is reported as 59.7%.
In the case of `O=C(Cn1c(-c2ccccc2)c[n+]2ccsc12)c1ccccc1.[Br-]`, the “hERG current change (%, negative = inhibition) at 1uM” value is reported as -0.507%.
With `O=C(CCN1C(=O)c2cccc3cccc(c23)C1=O)Nc1ccon1` the “hERG current change (%, negative = inhibition) at 1uM” value was 8.6%.
With `O=C(/C=C/Nc1nccs1)C(F)(F)Cl` the “hERG current change (%, negative = inhibition) at 1uM” value was 11.9%.
In the case of `CCCN1CCC(=O)N(CCSc2ccccc2)CC1`, the “hERG current change (%, negative = inhibition) at 1uM” value is reported as 6.94%.
In the case of `COc1ccc(C2=CC(c3ccc(OC)c(OC)c3)n3nnnc3N2)c(OC)c1` (stereo not drawn), the “hERG current change (%, negative = inhibition) at 1uM” value is reported as 6.04%.
In the case of `Cn1c(Cn2c(=O)sc3ccccc32)nnc1SCC(=O)NC1CCCCC1`, the “hERG current change (%, negative = inhibition) at 1uM” value is reported as 14.9%.
`Nc1n[nH]c(-c2cccc([N+](=O)[O-])c2)n1` was tested, and the “hERG current change (%, negative = inhibition) at 1uM” value was 14.1%.
With `O=Cc1ccc(OCC(=O)Nc2ccccc2C(F)(F)F)cc1` the “hERG current change (%, negative = inhibition) at 1uM” value was 6.83%.
In the case of `N#Cc1cc([N+](=O)[O-])cnc1N(CCO)CCO`, the “hERG current change (%, negative = inhibition) at 1uM” value is reported as 9.17%.
For `C=CCN(c1ccccc1C(=O)NCC(=O)OCC)S(=O)(=O)c1ccc(C)cc1`, the “hERG current change (%, negative = inhibition) at 1uM” value was 10.3%.
`COCCCNC(=S)N1CCN(C(=O)C(=O)Nc2ccc(C(=O)OC)cc2)CC1` was tested, and the “hERG current change (%, negative = inhibition) at 1uM” value was 2.94%.
With `CCCN1CCN(CCCNC(=O)C2CCN(c3nnc(-n4cccc4)s3)CC2)CC1` the “hERG current change (%, negative = inhibition) at 1uM” value was 4.95%.
`O=S(=O)(Nc1ccc(S(=O)(=O)Nc2ncccn2)cc1)c1ccccc1` was tested, and the “hERG current change (%, negative = inhibition) at 1uM” value was 13.2%.
With `CCOc1ccc(-c2nnc(NC(=O)c3ccc(OCC(C)C)c(OC)c3)o2)cc1` the “hERG current change (%, negative = inhibition) at 1uM” value was 11.3%.
For `CCN(C(=O)CSc1nnc(NCc2ccccc2)s1)C1CCS(=O)(=O)C1` (stereo not drawn), the “hERG current change (%, negative = inhibition) at 1uM” value was 3.15%.
With `Oc1ccccc1CNc1ccc(OC(F)(F)F)cc1` the “hERG current change (%, negative = inhibition) at 1uM” value was -1.42%.
`CS(=O)(=O)N(CC(=O)N1CCCC1)c1ccccc1Br` was tested, and the “hERG current change (%, negative = inhibition) at 1uM” value was 10.7%.
`O=C(Nc1cc2c3c(c1)C1CCCC1CN3CC1CCCC21)c1ccc([N+](=O)[O-])cc1` (stereo not drawn) was tested, and the “hERG current change (%, negative = inhibition) at 1uM” value was 16.6%.
With `CC(C)N(C(=O)C[n+]1ccsc1N)c1ccccc1.[Cl-]` the “hERG current change (%, negative = inhibition) at 1uM” value was 12.6%.
`O=C(COc1ccc(F)cc1)NCC1CCCO1` (stereo not drawn) was tested, and the “hERG current change (%, negative = inhibition) at 1uM” value was 7.18%.
In the case of `O=C(/C=C/c1ccccc1)Oc1coc(CSc2ncccn2)cc1=O`, the “hERG current change (%, negative = inhibition) at 1uM” value is reported as 6.71%.
`Cc1ccccc1CNC(=O)c1ccccc1N` was tested, and the “hERG current change (%, negative = inhibition) at 1uM” value was -1.64%.
In the case of `Cc1ccc(NC2SC(=O)N(CC(=O)O)C2=O)cc1` (stereo not drawn), the “hERG current change (%, negative = inhibition) at 1uM” value is reported as 2.54%.
With `Cc1cc(Cl)ccc1NC(=S)Nc1cccnc1` the “hERG current change (%, negative = inhibition) at 1uM” value was -7.02%.
For `CC1CCCCC1NC(=O)CN(C)S(=O)(=O)c1ccc2c(c1)c(=O)n(C)c(=O)n2C` (stereo not drawn), the “hERG current change (%, negative = inhibition) at 1uM” value was 4.42%.
In the case of `COc1ccccc1NC(=O)c1cc(S(=O)(=O)NC2CCCC2)ccc1F`, the “hERG current change (%, negative = inhibition) at 1uM” value is reported as 10.2%.
For `CC(=O)C1CCCN(C(=O)c2ccc3oc(CCc4ccccc4)nc3c2)C1` (stereo not drawn), the “hERG current change (%, negative = inhibition) at 1uM” value was 1.24%.
`O=C(/C=C/c1cc([N+](=O)[O-])ccc1OC(F)F)Nc1cccc(OC(F)F)c1` was tested, and the “hERG current change (%, negative = inhibition) at 1uM” value was 12.2%.
`c1ccc(-n2nnnc2-c2cnc(-c3ccncc3)nc2-c2cccs2)cc1` was tested, and the “hERG current change (%, negative = inhibition) at 1uM” value was -7.85%.
For `CCC(=O)Nc1cccc(NC(=S)NC(=O)c2cccs2)c1`, the “hERG current change (%, negative = inhibition) at 1uM” value was 7.78%.
With `O=C(NCc1ccco1)C1CCN(c2ccc(S(=O)(=O)N3CCOCC3)cc2[N+](=O)[O-])CC1` the “hERG current change (%, negative = inhibition) at 1uM” value was -51.5%.
`CC(C)(C)c1[nH]nc2c1C(c1ccco1)C(C#N)=C(N)O2` (stereo not drawn) was tested, and the “hERG current change (%, negative = inhibition) at 1uM” value was 9.53%.
For `CCCNC(=O)C1(S(=O)(=O)c2ccccc2)CC=CC1`, the “hERG current change (%, negative = inhibition) at 1uM” value was -14.6%.
`Cc1ccc(-c2nnc(Nc3ccc(CC(N)=O)cc3)c3ccccc23)cc1S(=O)(=O)NCC1CCCO1` (stereo not drawn) was tested, and the “hERG current change (%, negative = inhibition) at 1uM” value was 12.4%.
For `COc1ccc(F)cc1S(=O)(=O)Nc1cc2c3c(c1)CCC(=O)N3CCC2`, the “hERG current change (%, negative = inhibition) at 1uM” value was 11%.
In the case of `CCCCN(C(=O)NCCCCCCNC(=O)N(CCCC)C1CCS(=O)(=O)C1)C1CCS(=O)(=O)C1` (stereo not drawn), the “hERG current change (%, negative = inhibition) at 1uM” value is reported as 10.4%.
In the case of `COc1ccc(NC(=O)CC2SC(=O)NC2=O)cc1` (stereo not drawn), the “hERG current change (%, negative = inhibition) at 1uM” value is reported as 12.6%.
For `Cc1ccc2c(c1)N(C(C)C(=O)NCc1cccs1)C(=O)CO2` (stereo not drawn), the “hERG current change (%, negative = inhibition) at 1uM” value was 12%.
